# Hit rate of the full screen: of about 150,000 compounds, about 6,500 (4.3%) were called active. Inconclusive means that the source gave no clear call. Such entries were picked first, then a sample of the others. Calls follow the shape of the dose curve; as a rule, active = well fitted inhibition curve with a large enough effect (not every such curve was filed as active); inconclusive = small, poorly fitted or top-dose-only effect, or another doubt; inactive = no such curve, though single readings can be large or run the other way. No potency is given beside an inconclusive call; the fits are too rough.
# Target: 15-hydroxyprostaglandin dehydrogenase [NAD(+)] (Homo sapiens) (UniProt P15428)
# Sequence of UniProt P15428 (P15428 whole entry, looked up): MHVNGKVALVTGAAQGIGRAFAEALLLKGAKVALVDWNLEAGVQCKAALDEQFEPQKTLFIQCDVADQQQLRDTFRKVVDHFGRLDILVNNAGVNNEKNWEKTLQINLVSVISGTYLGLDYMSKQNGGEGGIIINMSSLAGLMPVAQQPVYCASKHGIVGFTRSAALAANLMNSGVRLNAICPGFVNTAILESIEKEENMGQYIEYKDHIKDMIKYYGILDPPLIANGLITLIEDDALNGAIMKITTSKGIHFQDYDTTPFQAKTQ
# Assay: qHTS Assay for Inhibitors of HPGD (15-Hydroxyprostaglandin Dehydrogenase)
# Details: purified HPGD, NADH fluorescence kinetic, PGE2 substrate; activity change, negative = inhibition: active compounds read low
# Outline: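 20 nM HPGD preincubated 15 min at room temperature with compound in 50 mM Tris-HCl pH 8, 0.01% Tween 20. Started with 1 mM NAD+ and 30 uM prostaglandin E2; NADH fluorescence (360/450 nm) read 5 times over 30-s intervals, last minus first.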
# % is scaled to controls: 0 for no effect and ±100 for the full control effect; potency is read from the fitted curve at half-maximal effect; tags tell the direction and shape of the fitted curve.
SMILES,Potency,"activity change, negative = inhibition"
O=C(c1cccc(N2C(=O)C3CC=CCC3C2=O)c1)N1CCN(c2ccccc2)CC1 (stereo not given),"inconclusive [inhibitor, partial curve]",–
CCOC(=O)C1=C(C)NC(SCC(=O)OC)=C(C#N)C1c1ccc(C(=O)OC)cc1 (stereo not given),"inconclusive [inhibitor, partial curve]",–
COc1cc(/C=N\n2cnnc2)ccc1OCC(=O)Nc1ccc(C)cc1,"inconclusive [inhibitor, partial curve]",–
Cc1cccc2cc(CN(Cc3ccc(F)cc3)C(=O)N(C)C)c3nnnn3c12,–,inactive: -2.97%
COc1c2ccoc2cc2oc(C)cc(=O)c12,"inconclusive [inhibitor, partial curve]",–
CCC1CCCCN1S(=O)(=O)c1ccc(C(=O)Nc2nnc(-c3ccccc3Cl)o2)cc1 (stereo not given),–,inactive: -2.87%
O=C1CSC(c2cn(-c3ccccc3)nc2-c2cc3ccccc3oc2=O)N1Cc1cccnc1 (stereo not given),"inconclusive [inhibitor, partial curve]",–
CCOC(=O)c1sc(NC(=O)/C=C/c2cnn(CC)c2C)c(C(=O)OCC)c1C,"inconclusive [inhibitor, partial curve]",–
O=C(c1cc(C(=O)c2ccco2)cc(C(=O)c2ccco2)c1)c1ccco1,–,inactive: -28.6%
O=[N+]([O-])c1c(NCCCO)cc(Sc2nc3ccccc3s2)c2nonc12,active: 2.82 µM,–
Cc1ccc(NN=C2C(=O)OC(C)(C)OC2=O)c(C)c1,–,inactive: -9.59%
COc1ccc(OC)c2[nH]c(=O)c(CCNS(=O)(=O)c3ccc(C)cc3)cc12,"inconclusive [inhibitor, partial curve]",–
COc1cc2c(=O)n(CC3CCCO3)c(=O)n(CC(=O)Nc3ccc(F)cc3F)c2cc1OC (stereo not given),"inconclusive [inhibitor, single point]",–
Oc1ccc(C2CNCc3sccc32)cc1O (stereo not given),active: 7.08 µM,–
Cc1cc(C(=O)OCC(=O)NCCC(C)C)c2ccccc2n1,"inconclusive [inhibitor, partial curve]",–
COc1ccc(NC(=O)C(Sc2nnc3ccccn23)c2ccccc2)cc1Cl (stereo not given),–,inactive: -16.6%
Cc1c(N=Cc2cc(Br)cc(Br)c2O)cccc1C(=O)O,"inconclusive [inhibitor, partial curve]",–
COc1ccc(OC)c(NC(=O)CSc2ncccc2C(=O)O)c1,active: 12.6 µM,–
COc1ccc(-c2nnc3sc(-c4ccccc4OC)nn23)cc1,"inconclusive [inhibitor, full curve]",–
COc1cc(C(=O)Nc2ccc(Oc3ncnc4sc(-c5ccccc5)cc34)cc2)cc(OC)c1OC,"inconclusive [inhibitor, partial curve]",–
COc1cc(C2CC(=O)N3CN(c4ccccc4C)CSC3=C2C#N)cc(OC)c1OC (stereo not given),active: 28.2 µM,–
Cc1sc(NC(=O)c2cccs2)c(C(=O)OC(C)C)c1C,"inconclusive [inhibitor, partial curve]",–
COc1ccccc1-n1c(SCC(=O)O)nnc1-c1ccc(S(=O)(=O)N2CCCCC2)cc1,"inconclusive [inhibitor, partial curve]",–
O=C(O)CCC(=O)N1CCc2cc(S(=O)(=O)Nc3ccc4c(c3)OCCO4)ccc21,active: 25.1 µM,–

SMILES,Potency,"activity change, negative = inhibition"
Cn1c2c(c(=O)c3ccccc31)CCC(C)(C)O2,active: 28.2 µM,–
Cc1ccc2[nH]c3c(c2c1)CN(C(=O)CN1c2ccc(F)cc2CCC1C)CC3 (stereo not given),"inconclusive [inhibitor, partial curve]",–
NCc1ccc(C(=O)O)cc1,–,inactive: -0.617%
c1ccc(-n2c(-c3ccco3)nnc2-c2ccco2)cc1,"inconclusive [inhibitor, single point]",–
Cc1[nH]c(=S)c(C#N)c(C)c1C(=O)Nc1ccccc1,active: 22.4 µM,–
O=S(=O)(Cc1ccccc1)N1CCn2c(nc3ccccc32)C1,–,inactive: -2.57%
COC(=O)c1cc(=O)n(Cc2cccs2)c(=NCc2cccs2)s1,–,inactive: -14.8%
CCOC(=O)CSc1nc(C)c(C(C)=O)cc1C#N,active: 22.4 µM,–
O=C1NC(=O)C(=C2CCCCCC2)S1,"inconclusive [inhibitor, partial curve]",–
Cc1ccc(-c2nn(-c3ccccc3)cc2C2CC(c3cccs3)=NN2C(=O)CCCC(=O)O)cc1 (stereo not given),"inconclusive [inhibitor, partial curve]",–
CCOc1cc(/C=N/NC(=O)COc2ccc(C)cc2)ccc1OC(=O)c1cccs1,–,inactive: -0.338%
CCN1CCN(c2cc(C)c3cc(NC(=O)c4cncc(Br)c4)ccc3n2)CC1,"inconclusive [inhibitor, partial curve]",–
Cc1ccn2c(c1)nc(=S)n2C(=O)c1ccccc1,active: 25.1 µM,–
C=CCN1C(c2ccc(OCC)cc2)=CS/C1=C(\C#N)c1nnc2n1CCCCC2,active: 28.2 µM,–
COc1ccccc1OCc1nnc(SCC(=O)c2cc(Cl)ccc2OC)o1,"inconclusive [inhibitor, partial curve]",–
CCC(CC)=C(C#N)C(=O)NC1CCCCC1,–,inactive: -17.4%
O=C(Oc1oc(-c2ccco2)nc1C=Nc1ccccc1)c1ccoc1,active: 5.01 µM,–
O=C(NN=C1C2CC3CC(C2)CC1C3)c1cc(Cl)ccc1O,"inconclusive [inhibitor, partial curve]",–
COc1ccc(-c2cc(=O)oc3cc(OC(=O)C4CCCCC4)c(Cl)cc23)cc1,"inconclusive [inhibitor, partial curve]",–
CC(C)(C)c1ccc(-c2csc(NNC3=NCCCCC3)n2)cc1,–,inactive: -12.9%
O=C(c1ccncc1)N1CCC2(CCCN(c3ccncc3)C2)CC1,–,inactive: -9.95%
O=C(Nc1nnc(C2CC2)s1)c1ccc(Cl)c(S(=O)(=O)N2CCc3ccccc3C2)c1,"inconclusive [inhibitor, partial curve]",–
CC(=O)NS(=O)(=O)c1ccc(NC(=O)c2ccc3c(c2)C(=O)N(CCC(C)C)C3=O)cc1,active: 28.2 µM,–
CCOC(=O)C1=C(C)NC2=C(C(=O)CC(C)(C)C2)C1c1cccc(C)n1 (stereo not given),"inconclusive [inhibitor, partial curve]",–

SMILES,Potency,"activity change, negative = inhibition"
CN(C)CCCNS(=O)(=O)c1ccc(N2CCC(c3ccc(Cl)cc3)=N2)cc1,"inconclusive [inhibitor, partial curve]",–
COc1ccc(S(=O)(=O)N2CCN(c3ccc4nnc(-c5ccccc5)n4n3)CC2)cc1,"inconclusive [inhibitor, partial curve]",–
CCCCn1c(NC(=O)c2ccc(Br)o2)c(S(=O)(=O)c2ccccc2)c2nc3ccccc3nc21,"inconclusive [inhibitor, partial curve]",–
COc1cccc2oc(-c3ccco3)cc(=O)c12,"inconclusive [inhibitor, partial curve, poor fit]",–
CC(C)[C@H](NC(=O)c1ccccc1)C(=O)OCC(=O)NCCC1=CCCCC1,–,inactive: -4.16%
O=C(Nc1ccccc1-c1nnc(SCc2ccccc2Cl)o1)c1ccccc1,"inconclusive [inhibitor, single point]",–
COc1cc(-c2nnc(CSc3nnc(N)s3)o2)cc(OC)c1OC,–,inactive: -10.9%
CCOC(=O)N1CCN(c2c(-c3ccccc3)c3cc(Cl)ccc3[nH]c2=O)CC1,"inconclusive [inhibitor, partial curve]",–
Cc1ccc(CSCCNC(=O)CCSc2ccccc2)cc1,"inconclusive [inhibitor, partial curve]",–
N#Cc1nc(-c2ccco2)oc1N1CCC(C(N)=O)CC1,"inconclusive [inhibitor, partial curve]",–
CC(=O)CSc1nsc(SCC(C)=O)c1C#N,"inconclusive [inhibitor, partial curve, poor fit]",–
CCCCCCCCCS(=O)(=O)Nc1cc(C)ccn1,"inconclusive [inhibitor, partial curve]",–
c1ccc(-c2ccc(-c3nc(-c4ccccn4)no3)cc2)cc1,"inconclusive [inhibitor, partial curve]",–
c1coc(CN(Cc2ccco2)c2ncnc3c2oc2ccccc23)c1,"inconclusive [inhibitor, single point]",–
O=C(CSCc1ccccc1)Nc1cccc(C(=O)Nc2ccc(C(=O)O)cc2)c1,"inconclusive [inhibitor, partial curve]",–
Cc1nn(-c2ccccc2)c(Cl)c1C(=O)Nc1ccccc1,active: 14.1 µM,–
Cc1ccc(-n2c(C(C)n3nc(C)c([N+](=O)[O-])c3C)n[nH]c2=S)cc1 (stereo not given),–,inactive: -14.4%
Cc1ccc(C(=O)CSc2ncn[nH]2)cc1,"inconclusive [inhibitor, single point]",–
O=C1CC(c2ccc(F)cc2)Cc2nc(N3CCN(c4ccccc4)CC3)ncc21 (stereo not given),"inconclusive [inhibitor, partial curve]",–
CC1CCN(C(=O)C2CCN(S(=O)(=O)c3cccc4nonc34)CC2)CC1,active: 15.8 µM,–
Cc1ccc2cc(C)c(Sc3nnnn3-c3ccccc3)nc2c1,–,inactive: -12.3%
COC(=O)c1ccc(NC(=O)c2cn(-c3ccccc3)nc2-c2ccncc2)cc1,"inconclusive [inhibitor, partial curve]",–

# Reference: PubChem BioAssay AID894 (National Center for Advancing Translational Sciences (NCATS), 2007)
